# According to PubChem BioAssay AID2147 (National Center for Advancing Translational Sciences (NCATS), 2009):
# Values joined by “and” are separate entries in the source; they are usually repeats but may differ in a detail not shown here. Equal values may be shown once. Among all 230,000 compounds or so, about 3,600 (1.6%) were called active. The inconclusive results got no clear call from the source; some entries with a clear call stand among them for comparison. The call rests on the fitted dose curve; in most records, active means well fitted inhibition curve with a large enough effect (not every such curve was filed as active); inconclusive means small, poorly fitted or top-dose-only effect, or another doubt; inactive means no such curve, though single readings can be large or run the other way. Where the call is inconclusive, the potency comes from a doubtful curve fit.
# Molecular target: Lysine-specific demethylase 4E (Homo sapiens) (UniProt B2RXH2)
# Chain of UniProt B2RXH2 (B2RXH2 whole entry, looked up, the tested form may be a part): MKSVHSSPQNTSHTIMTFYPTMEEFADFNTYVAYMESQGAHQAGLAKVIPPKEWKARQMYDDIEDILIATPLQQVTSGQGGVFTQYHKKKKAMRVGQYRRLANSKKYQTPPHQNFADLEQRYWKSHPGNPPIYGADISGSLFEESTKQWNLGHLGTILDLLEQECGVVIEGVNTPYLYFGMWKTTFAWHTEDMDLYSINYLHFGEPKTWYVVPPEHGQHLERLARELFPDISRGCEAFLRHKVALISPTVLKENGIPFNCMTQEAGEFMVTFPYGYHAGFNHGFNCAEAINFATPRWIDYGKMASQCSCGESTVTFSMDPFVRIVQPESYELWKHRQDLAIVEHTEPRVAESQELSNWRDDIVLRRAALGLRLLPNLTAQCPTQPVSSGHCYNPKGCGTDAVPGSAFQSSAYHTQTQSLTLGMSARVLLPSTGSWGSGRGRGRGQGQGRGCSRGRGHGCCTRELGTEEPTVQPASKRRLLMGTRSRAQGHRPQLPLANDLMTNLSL
# Assay: qHTS Assay for Inhibitors of Human Jumonji Domain Containing 2E (JMJD2E)
# Conditions: JMJD2E catalytic domain, FDH-coupled NADH fluorescence (FDH is formaldehyde dehydrogenase); series mostly up to 57.1 µM; activity change, negative = inhibition: at the top concentration
# Further: nearly all actives have a fitted effect of over 50% in size.
# Potency means the concentration at half of the fitted maximal effect; tags describe the fitted curve by direction and shape.
# 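Wherever activity change, negative = inhibition is given: 0% = wells with enzyme and -100% = buffer wells without enzyme.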
Structure (SMILES),Potency,"activity change, negative = inhibition"
CCOc1cc(C2C(C(=O)N3CCCCC3)=C(C)NC3=C2C(=O)CC(C)(C)C3)ccc1O (centres undefined),"inconclusive: 35.5 µM [inhibitor, single point]",
CCOc1ccccc1NC(=O)C(C)CC (centres undefined),"inconclusive: 39.8 µM [inhibitor, single point]",
Cc1occc(=O)c1O,active: 35.5 µM and active: 15.8 µM,
CCN1CCN(CCCNC(=O)c2ccc(/C=C3/Sc4ccccc4N(Cc4ccccc4F)C3=O)cc2)CC1,"inconclusive: 39.8 µM [inhibitor, single point]",
O=C(CN1C(=O)c2cccc3cccc(c23)C1=O)NCCN1CCOCC1,"inconclusive: 25.1 µM [inhibitor, partial curve]",
S=C(N/N=C/c1ccccc1Cl)Nc1cccc(Cl)c1Cl,,inactive: -7.02%
CN(C)C(/C=C/Nc1ccc([N+](=O)[O-])cc1)=C(C#N)C#N,"inconclusive: 39.8 µM [inhibitor, single point]",
O=[N+]([O-])c1ccc(/C=N\N2CCN(c3ccc(Cl)cc3)CC2)cc1,,inactive: 1.44%
Cc1cccc(N(C(=O)c2snc(C(N)=O)c2N)C(C)C(=O)NCC2CCCO2)c1 (centres undefined),"inconclusive: 31.6 µM [inhibitor, partial curve]",
Clc1cccc(N/N=C(\Cc2nc3ccccc3[nH]2)c2ccccc2)c1,,inactive: -17.1%
CC1(C)SC2C(N3C(=O)C(c4ccccc4)NC3(C)C)C(=O)N2C1C(=O)O (centres undefined),"inconclusive: 31.6 µM [inhibitor, partial curve]",
O=C(Nc1ccccc1)N1CCN(c2ccccn2)CC1,"inconclusive: 28.2 µM [inhibitor, partial curve]",
Cc1onc(C(=O)Nc2c(C)n(C)n(-c3ccccc3)c2=O)c1[N+](=O)[O-],"inconclusive: 25.1 µM [inhibitor, partial curve]",
CN(Cc1ccccc1)C(=O)CCS(=O)(=O)c1ccc2c(c1)n(C)c(=O)c(=O)n2C,"inconclusive: 39.8 µM [inhibitor, single point]",
N#Cc1cccc(N=Cc2c(O)ccc3ccccc23)c1,"inconclusive: 35.5 µM [inhibitor, single point]",
Cc1ccc(Sc2nc(-c3ccccc3)ccc2C#N)cc1,"inconclusive: 28.2 µM [inhibitor, single point]",
O=c1c2ccccc2nc(N/N=C/c2ccc(O)cc2)n1O,"inconclusive: 22.4 µM [inhibitor, single point]",
COCCSc1nnc(-c2cnccn2)o1,"inconclusive: 39.8 µM [inhibitor, single point]",
O=C(O)C1CC(=O)N(c2ccc3c(c2)OCCO3)C1 (centres undefined),,inactive: -2.37%
Cc1ccc(NC(=S)NNC(=O)c2nn(C)c(C)c2Cl)cc1,active: 12.6 µM,
CN(C)c1nc(Oc2ccc(=O)n(-c3ccccc3)n2)nc(N2CCOCC2)n1,,inactive: -0.924%
COC(=O)CSc1nnc(-c2cccnc2)n1C,,inactive: -1.45%
CCOC(=O)c1cc(-c2ccc(Cl)cc2)nc2onc(C)c12,"inconclusive: 3.16 µM [inhibitor, full curve]",
Cc1ccc(NC(=O)c2oc3ccccc3c2NC(=O)c2ccc3c(c2)OCO3)cc1,"inconclusive: 35.5 µM [inhibitor, partial curve]",
CCOc1cc(NC(=O)C2CC2)c(OCC)cc1NC(=O)c1cccnc1,"inconclusive: 31.6 µM [inhibitor, single point]",

Structure (SMILES),Potency,"activity change, negative = inhibition"
COc1ccc(OCCSc2nnc3c(Cl)cc(Cl)cn23)cc1,"inconclusive: 35.5 µM [inhibitor, single point]",
COc1ccccc1-c1cc(C(=O)Nc2cc(C)nn2-c2ccccc2)no1,"inconclusive: 35.5 µM [inhibitor, single point]",
Cn1nc(-c2ccc(Cl)cc2)c2cc(C(=O)NCc3ccco3)sc21,"inconclusive: 31.6 µM [inhibitor, partial curve]",
CC(=O)Oc1ccc2nc(-c3cccs3)oc(=O)c2c1,"inconclusive: 39.8 µM [inhibitor, single point]",
CC(=O)c1cccc(NC(=O)C2CC(c3ccc(F)cc3)=NO2)c1 (centres undefined),,inactive: 3.96%
COc1ccc(-c2nn(-c3ccccc3)cc2C(=O)n2nnc3ccccc32)cc1,"inconclusive: 31.6 µM [inhibitor, partial curve]",
OC(COCc1ccc(Cl)cc1)CN1CCN(CC(O)COCc2ccc(Cl)cc2)CC1 (centres undefined),,inactive: -2.48%
N#Cc1c(-c2cccnc2)cc(-c2ccccc2)nc1N,"inconclusive: 31.6 µM [inhibitor, partial curve]",
Cc1nc2ccccc2c2oc(C(=O)NCCN3CCCCC3C)cc12 (centres undefined),"inconclusive: 25.1 µM [inhibitor, single point]",
c1ccc(Cc2nn3c(COc4ccccc4)nnc3s2)cc1,,inactive: 2.9%
Cc1nn(-c2ccccc2)c(C)c1/C=N/N1CCN(c2ccccn2)CC1,,inactive: -2.11%
Cn1c(SCC(=O)NCC2CCCO2)nnc1-c1ccc(S(=O)(=O)N2CCCC2)cc1 (centres undefined),"inconclusive: 39.8 µM [inhibitor, single point]",
COc1ccc(Nc2oc(-c3ccccc3Cl)nc2C#N)cc1,"inconclusive: 35.5 µM [inhibitor, single point]",
Cn1nc(C(F)(F)F)c(/C=N/OC(=O)c2ccccc2)c1SCc1ccc(Cl)cc1,,inactive: 3.32%
CC(C)=CC1C(CO)C1(C)C (centres undefined),,inactive: 10%
COCCNc1ncnc2c1[nH]c1ccccc12,"inconclusive: 35.5 µM [inhibitor, partial curve]",
O=C(Nc1ccc(Cl)cn1)c1ccc(-c2cc(Cl)ccc2Cl)o1,,inactive: 3.92%
Cc1ccc(C(=O)COC(=O)CN2C(=O)C3C4CCC(C4)C3C2=O)cc1[N+](=O)[O-] (centres undefined),,inactive: -9.8%
COc1ccc(N2C(=O)CC(N(CCc3ccc(S(N)(=O)=O)cc3)C(=S)Nc3ccccc3)C2=O)cc1 (centres undefined),,inactive: 5.25%
COc1ccc(-c2c(C)nn(-c3ccccc3)c2N)cc1OC,,inactive: 1.23%
Nc1cc(C(=O)OCC(=O)NCc2ccco2)ccc1Cl,"inconclusive: 28.2 µM [inhibitor, single point]",
Cc1cccc(C)c1NC(=O)CSc1nc(-c2ccco2)cc(C(F)(F)F)n1,,inactive: -4.03%
Cc1ccnc(NC(=O)c2cc3c(=O)oc4ccc(C)cc4c3s2)c1,"inconclusive: 5.62 µM [inhibitor, full curve]",
C[N+](C)(CCCCCC[N+](C)(C)CCCN1C(=O)c2cccc3cccc(c23)C1=O)CCCN1C(=O)c2cccc3cccc(c23)C1=O,"inconclusive: 35.5 µM [inhibitor, single point]",
CC(C)NC(=O)c1cccc(Cn2cc(Cl)cn2)c1,"inconclusive: 39.8 µM [inhibitor, single point]",

Structure (SMILES),Potency,"activity change, negative = inhibition"
CCn1c(C(=O)Nc2ccsc2C(=O)OC)cc2sc(Cl)cc21,"inconclusive: 31.6 µM [inhibitor, partial curve]",
CCCCCCC(=O)NNC(=O)c1c(O)c2ccccc2n(CC)c1=O,"inconclusive: 25.1 µM [inhibitor, single point]",
N#Cc1cc(Br)ccc1N=C1CCCN1c1ccccc1,,inactive: 0.794%
C=CCC1(N(C(C)=O)c2ccccc2)CCCCC1,,inactive: 3.24%
CCCCC[n+]1ccn(-c2nc3ccccc3nc2[N-]S(=O)(=O)c2ccc(C)cc2)c1,"inconclusive: 31.6 µM [inhibitor, partial curve]",
Cc1ccc2nc(-c3ccc(N4C(=O)CC(N5CCC(C(N)=O)CC5)C4=O)cc3)sc2c1 (centres undefined),"inconclusive: 25.1 µM [inhibitor, partial curve]",
CCCCNS(=O)(=O)c1ccc2nc(SCC(=O)Nc3cccc(F)c3)[nH]c2c1,,inactive: 8.3%
O=S(=O)(C/C(=C/CO)S(=O)(=O)c1ccccc1)c1ccccc1,,inactive: 3.01%
c1cc2[nH]snc2c2nc(C3CC3)nc12,active: 20 µM,
COc1cccc(NC(=O)Nc2nnc(-c3ccccc3SCc3ccccc3)s2)c1,,inactive: -9.06%
COc1cc2c(cc1OC)C(c1ccccc1)=NCC2,inactive,
O=C(NCc1nc2ccccc2[nH]1)c1ccc(S(=O)(=O)N2CCOCC2)cc1,"inconclusive: 39.8 µM [inhibitor, single point]",
CC(=O)NC(=S)Nc1ccc(NC(=S)NC(=O)c2ccc([N+](=O)[O-])cc2)cc1,"inconclusive: 39.8 µM [inhibitor, single point]",
O=C(O)c1ccccc1S(=O)CCO (centres undefined),"inconclusive: 39.8 µM [inhibitor, single point]",
Cc1onc(-c2ccccc2Cl)c1C(=O)NC(=S)Nc1ccc(C(C)C)cc1,"inconclusive: 0.158 µM [inhibitor, full curve, poor fit]",
CS(=O)(=O)Nc1ccccc1C(=O)Nc1cc(Cl)cc(Cl)c1,"inconclusive: 25.1 µM [inhibitor, partial curve]",
COc1ccc(C)cc1NC(=O)c1[nH]c(C)c(C(C)=O)c1C,"inconclusive: 39.8 µM [inhibitor, single point]",
CC1(C)CC23C(=O)CCC(O)C2(C)CCC13 (centres undefined),,inactive: -10.3%
CC(=O)Nc1ccc2c(c1)nc(CCN1CCOCC1)n2C,"inconclusive: 39.8 µM [inhibitor, single point]",
Cc1ccsc1-c1nc(C(N)=O)c2[nH]c(=O)n(-c3ccc(Cl)cc3)c2n1,"inconclusive: 20 µM [inhibitor, single point]",
O=C1NC(=S)CN1c1ccccc1,"inconclusive: 35.5 µM [inhibitor, single point]",
CC1Cn2c(nc(=O)c3c2NCN(CCc2ccccc2)C3)S1 (centres undefined),,inactive: -0.445%
Nc1ncnc2c1C1(CCCCC1)Cc1ccccc1-2,"inconclusive: 31.6 µM [inhibitor, partial curve]",
O=C1CC(c2ccccc2F)c2c(c3ccccc3[nH]c2=O)O1 (centres undefined),"inconclusive: 28.2 µM [inhibitor, partial curve]",
